From the supplement of paper PMC11741623
The list shows a part of the results. Interaction screen of human proteins with wild-type SARS-CoV-2 proteins by split-DHFR complementation in yeast, 1 µg/mL methotrexate. Value = fitness of the pair (three or more lineages) minus that of the viral protein without a human partner, on a scale set by negative (0) and fused positive (1) controls, mean of up to three cultures; higher = more likely to interact. Active = false discovery rate below 0.05 (one-sided t-test) in at least one culture. Nearly all pairs are not hits, and differences among them are mostly noise (correlation between cultures about 0.3); most hits were seen in one culture only. Human sequences are the Swiss-Prot entries looked up by gene name; the clone may be another isoform. NSP2 values were corrected by the authors for a growth advantage. Listed are human proteins with a hit and a random twelfth of the others.

Columns and labels:
Experiment in all cases: yeast fitness gain over the viral ORF with no human partner (scaled fitness); higher = more likely to interact
SARS-CoV-2 E = molecular target: SARS-CoV-2 E
Protocol: (§1)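 Split mouse DHFR complementation in pooled diploid yeast: human ORFeome clones carry one fragment and viral ORFs the other; barcoded lineages compete in 1 µg/mL methotrexate and fitness is read by barcode sequencing in up to three cultures.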

SARS-CoV-2 M = molecular target: SARS-CoV-2 M
Protocol: as §1

SARS-CoV-2 N = molecular target: SARS-CoV-2 N
Protocol: as §1

SARS-CoV-2 NSP1 = molecular target: SARS-CoV-2 NSP1
Protocol: as §1

SARS-CoV-2 NSP10 = molecular target: SARS-CoV-2 NSP10
Protocol: as §1

SARS-CoV-2 NSP12 = molecular target: SARS-CoV-2 NSP12
Protocol: as §1

SARS-CoV-2 NSP13 = molecular target: SARS-CoV-2 NSP13
Protocol: as §1

SARS-CoV-2 NSP14 = molecular target: SARS-CoV-2 NSP14
Protocol: as §1

SARS-CoV-2 NSP15 = molecular target: SARS-CoV-2 NSP15
Protocol: as §1

SARS-CoV-2 NSP16 = molecular target: SARS-CoV-2 NSP16
Protocol: as §1

SARS-CoV-2 NSP2 = molecular target: SARS-CoV-2 NSP2
Protocol: as §1

SARS-CoV-2 NSP4 = molecular target: SARS-CoV-2 NSP4
Protocol: as §1

SARS-CoV-2 NSP5 = molecular target: SARS-CoV-2 NSP5
Protocol: as §1

SARS-CoV-2 NSP6 = molecular target: SARS-CoV-2 NSP6
Protocol: as §1

SARS-CoV-2 NSP7 = molecular target: SARS-CoV-2 NSP7
Protocol: as §1

SARS-CoV-2 NSP8 = molecular target: SARS-CoV-2 NSP8
Protocol: as §1

SARS-CoV-2 NSP9 = molecular target: SARS-CoV-2 NSP9
Protocol: as §1

SARS-CoV-2 ORF10 = molecular target: SARS-CoV-2 ORF10
Protocol: as §1

SARS-CoV-2 ORF3A = molecular target: SARS-CoV-2 ORF3A
Protocol: as §1

SARS-CoV-2 ORF3B = molecular target: SARS-CoV-2 ORF3B
Protocol: as §1

SARS-CoV-2 ORF6 = molecular target: SARS-CoV-2 ORF6
Protocol: as §1

SARS-CoV-2 ORF7A = molecular target: SARS-CoV-2 ORF7A
Protocol: as §1

SARS-CoV-2 ORF7B = molecular target: SARS-CoV-2 ORF7B
Protocol: as §1

SARS-CoV-2 ORF8 = molecular target: SARS-CoV-2 ORF8
Protocol: as §1

SARS-CoV-2 ORF9B = molecular target: SARS-CoV-2 ORF9B
Protocol: as §1

[1] = molecular target: SARS-CoV-2 ORF9Bwu (the 73-codon ORF)
Protocol: as §1

SARS-CoV-2 S = molecular target: SARS-CoV-2 S
Protocol: as §1

Measured: yeast fitness gain

B1: C14orf1, Q9UKR5 (protein)
chain: MSRFLNVLRSWLVMVSIIAMGNTLQSFRDHTFLYEKLYTGKPNLVNGLQARTFGIWTLLSSVIRCLCAIDIHNKTLYHITLWTFLLALGHFLSELFVYGTAAPTIGVLAPLMVASFSILGMLVGLRYLEVEPVSRQKKRN
inactive: SARS-CoV-2 E -0.055 | SARS-CoV-2 M -0.00998 | SARS-CoV-2 N -0.0403 | SARS-CoV-2 NSP1 = 0.0747 | SARS-CoV-2 NSP10 = 0.053 | SARS-CoV-2 NSP12 = -0.00422 | SARS-CoV-2 NSP13 = -0.00557 | SARS-CoV-2 NSP14 = 0.0545 | SARS-CoV-2 NSP15 = 0.0162 | SARS-CoV-2 NSP16 = 0.016 | SARS-CoV-2 NSP2 = -0.149 | SARS-CoV-2 NSP4 = 0.348 | SARS-CoV-2 NSP5 = 0.0274 | SARS-CoV-2 NSP6 = 0.0342 | SARS-CoV-2 NSP7 = -0.0694 | SARS-CoV-2 NSP8 = 0.0891 | SARS-CoV-2 NSP9 = 0.0418 | SARS-CoV-2 ORF10 = 0.0352 | SARS-CoV-2 ORF3A 0.105 | SARS-CoV-2 ORF3B 0.00318 | SARS-CoV-2 ORF6 = 0.0459 | SARS-CoV-2 ORF7A 0.0725 | SARS-CoV-2 ORF7B 0.113 | SARS-CoV-2 ORF8 = 0.038 | SARS-CoV-2 ORF9B 0.0296 | [1] 0.09 | SARS-CoV-2 S 0.00905

B2: CA6, P23280 (protein)
chain: MRALVLLLSLFLLGGQAQHVSDWTYSEGALDEAHWPQHYPACGGQRQSPINLQRTKVRYNPSLKGLNMTGYETQAGEFPMVNNGHTVQISLPSTMRMTVADGTVYIAQQMHFHWGGASSEISGSEHTVDGIRHVIEIHIVHYNSKYKSYDIAQDAPDGLAVLAAFVEVKNYPENTYYSNFISHLANIKYPGQRTTLTGLDVQDMLPRNLQHYYTYHGSLTTPPCTENVHWFVLADFVKLSRTQVWKLENSLLDHRNKTIHNDYRRTQPLNHRVVESNFPNQEYTLGSEFQFYLHKIEEILDYLRRALN
inactive: SARS-CoV-2 E -0.105 | SARS-CoV-2 M 0.0109 | SARS-CoV-2 N 0.013 | SARS-CoV-2 NSP1 = -0.00848 | SARS-CoV-2 NSP10 = 0.0453 | SARS-CoV-2 NSP12 = -0.0282 | SARS-CoV-2 NSP13 = 0.0145 | SARS-CoV-2 NSP15 = -0.0335 | SARS-CoV-2 NSP16 = -0.0773 | SARS-CoV-2 NSP2 = -0.108 | SARS-CoV-2 NSP4 = -0.204 | SARS-CoV-2 NSP5 = 0.0107 | SARS-CoV-2 NSP6 = -0.048 | SARS-CoV-2 NSP7 = 0.0408 | SARS-CoV-2 NSP8 = 0.00277 | SARS-CoV-2 NSP9 = -0.062 | SARS-CoV-2 ORF10 = 0.0189 | SARS-CoV-2 ORF3A -0.00799 | SARS-CoV-2 ORF3B 0.029 | SARS-CoV-2 ORF6 = -0.0355 | SARS-CoV-2 ORF7A -0.0514 | SARS-CoV-2 ORF7B 0.101 | SARS-CoV-2 ORF8 = 0.0666 | SARS-CoV-2 ORF9B 0.024 | [1] -0.0673 | SARS-CoV-2 S 0.0311

B3: C10orf62, Q5T681 (protein)
chain: MLWVQRKRRRKETSECPSDKDKSPESHKAKNESWIKSHFSRLSEEKLALDNNASASGNATQTESGSEEVSSTVHIETFTTRHGEVGSALHRESFTSRQKTSGPSVIQEIHQESGKAPSTDEATWAAVAACTKEIDTQGRHLAHSMLQRAIAYQHSGHLESKDINQEELRALEEVEMKLQKNFLTQRENTIAGANHTHTFYGHSHHSHHGHPSHQSHSLPNRRH
inactive: SARS-CoV-2 E -0.0423 | SARS-CoV-2 N 0.0248 | SARS-CoV-2 NSP1 = 0.0172 | SARS-CoV-2 NSP10 = -0.0109 | SARS-CoV-2 NSP12 = 0.0341 | SARS-CoV-2 NSP13 = -0.0176 | SARS-CoV-2 NSP15 = -0.0916 | SARS-CoV-2 NSP16 = 0.096 | SARS-CoV-2 NSP2 = -0.241 | SARS-CoV-2 NSP5 = 0.0379 | SARS-CoV-2 NSP6 = -0.017 | SARS-CoV-2 NSP7 = -0.00988 | SARS-CoV-2 NSP8 = -0.014 | SARS-CoV-2 NSP9 = -0.0216 | SARS-CoV-2 ORF10 = -0.176 | SARS-CoV-2 ORF3B -0.0264 | SARS-CoV-2 ORF6 = -0.0934 | SARS-CoV-2 ORF7A 0.0427 | SARS-CoV-2 ORF7B 0.0074 | SARS-CoV-2 ORF8 = 0.00665 | SARS-CoV-2 ORF9B 0.0136 | [1] 0.0289 | SARS-CoV-2 S 0.0986

B4: CA11, O75493 (protein)
chain: MGAAARLSAPRALVLWAALGAAAHIGPAPDPEDWWSYKDNLQGNFVPGPPFWGLVNAAWSLCAVGKRQSPVDVELKRVLYDPFLPPLRLSTGGEKLRGTLYNTGRHVSFLPAPRPVVNVSGGPLLYSHRLSELRLLFGARDGAGSEHQINHQGFSAEVQLIHFNQELYGNFSAASRGPNGLAILSLFVNVASTSNPFLSRLLNRDTITRISYKNDAYFLQDLSLELLFPESFGFITYQGSLSTPPCSETVTWILIDRALNITSLQMHSLRLLSQNPPSQIFQSLSGNSRPLQPLAHRALRGNRDPRHPERRCRGPNYRLHVDGVPHGR
inactive: SARS-CoV-2 E -0.11 | SARS-CoV-2 M -0.0401 | SARS-CoV-2 N -0.101 | SARS-CoV-2 NSP1 = -0.0478 | SARS-CoV-2 NSP10 = -0.00605 | SARS-CoV-2 NSP12 = 0.0357 | SARS-CoV-2 NSP13 = -0.00796 | SARS-CoV-2 NSP15 = 0.00199 | SARS-CoV-2 NSP16 = -0.0884 | SARS-CoV-2 NSP2 = -0.0806 | SARS-CoV-2 NSP5 = 0.0336 | SARS-CoV-2 NSP6 = 0.0928 | SARS-CoV-2 NSP7 = 0.0188 | SARS-CoV-2 NSP8 = -0.01 | SARS-CoV-2 ORF10 = -0.0495 | SARS-CoV-2 ORF3A 0.145 | SARS-CoV-2 ORF3B 0.0446 | SARS-CoV-2 ORF6 = 0.00745 | SARS-CoV-2 ORF7A 0.0159 | SARS-CoV-2 ORF7B -0.0895 | SARS-CoV-2 ORF8 = 0.0331 | SARS-CoV-2 ORF9B -0.0378 | [1] 0.0768 | SARS-CoV-2 S 0.0831

B5: C3orf18, Q9UK00 (protein)
chain: MNSRTASARGWFSSRPPTSESDLEPATDGPASETTTLSPEATTFNDTRIPDAAGGTAGVGTMLLSFGIITVIGLAVALVLYIRKKKRLEKLRHQLMPMYNFDPTEEQDELEQELLEHGRDAASVQAATSVQAMQGKTTLPSQGPLQRPSRLVFTDVANAIHA
inactive: SARS-CoV-2 E -0.0628 | SARS-CoV-2 M -0.133 | SARS-CoV-2 NSP1 = 0.0104 | SARS-CoV-2 NSP10 = -0.0477 | SARS-CoV-2 NSP12 = 0.0299 | SARS-CoV-2 NSP13 = -0.11 | SARS-CoV-2 NSP15 = 0.051 | SARS-CoV-2 NSP16 = 0.0444 | SARS-CoV-2 NSP2 = -0.049 | SARS-CoV-2 NSP5 = -0.0164 | SARS-CoV-2 NSP6 = 0.0218 | SARS-CoV-2 NSP7 = 0.0167 | SARS-CoV-2 NSP8 = 0.0988 | SARS-CoV-2 ORF10 = -0.0944 | SARS-CoV-2 ORF3A 0.00176 | SARS-CoV-2 ORF3B -0.0465 | SARS-CoV-2 ORF6 = -0.0295 | SARS-CoV-2 ORF7A -0.0575 | SARS-CoV-2 ORF7B 0.0892 | SARS-CoV-2 ORF8 = 0.00115 | SARS-CoV-2 ORF9B -0.0168 | [1] 0.0254 | SARS-CoV-2 S 0.0087
